The supplement of paper PMC8728848
The other results are listed elsewhere or left out.

How the values were obtained:
Experiment in all cases: glycan array binding signal (z-score within array); higher = stronger binding
Details in all cases: glycan notation: IUPAC condensed, linker removed
[1] = molecular target: Gal(b1-3)GlcNAc(b1-2)Man(a1-3)[Gal(b1-3)GlcNAc(b1-2)Man(a1-6)]Man(b1-4)GlcNAc(b1-4)[Fuc(a1-6)]GlcNAc
Summary of the method: (§1)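 From the Consortium for Functional Glycomics database, 3228 arrays were curated, keeping only those whose protein sequence was available. Binding is given as a within-array Z-score averaged across arrays sharing a protein sequence and across linkers. Negative Z-scores can be read as non-binding.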

[2] = molecular target: Gal(b1-3)GlcNAc(b1-2)Man(a1-3)[GlcNAc(b1-4)][Gal(b1-3)GlcNAc(b1-2)Man(a1-6)]Man(b1-4)GlcNAc(b1-4)GlcNAc
Summary of the method: as §1

[3] = molecular target: Gal(b1-3)GlcNAc(b1-2)[Gal(b1-3)GlcNAc(b1-6)]Man(a1-6)[Gal(b1-3)GlcNAc(b1-2)Man(a1-3)]Man(b1-4)GlcNAc(b1-4)GlcNAc
Summary of the method: as §1

[4] = molecular target: Gal(b1-3)GlcNAc(b1-3)Gal(b1-3)GlcNAc
Summary of the method: as §1

[5] = molecular target: Gal(b1-3)GlcNAc(b1-3)Gal(b1-4)Glc
Summary of the method: as §1

[6] = molecular target: Gal(b1-3)GlcNAc(b1-3)Gal(b1-4)GlcNAc
Summary of the method: as §1

[7] = molecular target: Gal(b1-3)GlcNAc(b1-3)Gal(b1-4)GlcNAc(b1-2)Man(a1-3)[Gal(b1-3)GlcNAc(b1-3)Gal(b1-4)GlcNAc(b1-2)Man(a1-6)]Man(b1-4)GlcNAc(b1-4)GlcNAc
Summary of the method: as §1

[8] = molecular target: Gal(b1-3)GlcNAc(b1-3)Gal(b1-4)GlcNAc(b1-2)[Gal(b1-3)GlcNAc(b1-3)Gal(b1-4)GlcNAc(b1-6)]Man(a1-6)[Gal(b1-3)GlcNAc(b1-3)Gal(b1-4)GlcNAc(b1-2)Man(a1-3)]Man(b1-4)GlcNAc(b1-4)[Fuc(a1-6)]GlcNAc
Summary of the method: as §1

[9] = molecular target: Gal(b1-3)GlcNAc(b1-3)Gal(b1-4)GlcNAc(b1-3)Gal(b1-4)GlcNAc(b1-2)[Gal(b1-3)GlcNAc(b1-3)Gal(b1-4)GlcNAc(b1-3)Gal(b1-4)GlcNAc(b1-6)]Man(a1-6)[Gal(b1-3)GlcNAc(b1-3)Gal(b1-4)GlcNAc(b1-3)Gal(b1-4)GlcNAc(b1-2)Man(a1-3)]Man(b1-4)GlcNAc(b1-4)[Fuc(a1-6)]GlcNAc
Summary of the method: as §1

[10] = molecular target: Gal(b1-3)GlcNAc(b1-3)Gal(b1-4)GlcNAc(b1-6)[Gal(b1-3)GlcNAc(b1-3)]Gal(b1-4)Glc
Summary of the method: as §1

[11] = molecular target: Gal(b1-3)GlcNAc(b1-3)Gal(b1-4)[Fuc(a1-3)]GlcNAc
Summary of the method: as §1

[12] = molecular target: Gal(b1-3)GlcNAc(b1-3)Gal(b1-4)[Fuc(a1-3)]GlcNAc(b1-6)[Gal(b1-3)GlcNAc(b1-3)]Gal(b1-4)Glc
Summary of the method: as §1

[13] = molecular target: Gal(b1-3)GlcNAc(b1-3)GalNAc
Summary of the method: as §1

[14] = molecular target: Gal(b1-3)GlcNAc(b1-6)Gal(b1-4)GlcNAc
Summary of the method: as §1

[15] = molecular target: Gal(b1-3)GlcNAc(b1-6)GalNAc
Summary of the method: as §1

[16] = molecular target: Gal(b1-3)GlcNAc(b1-6)[Gal(b1-3)]GalNAc
Summary of the method: as §1

Gal(b1-3)GlcNAc6S = molecular target: Gal(b1-3)GlcNAc6S
Summary of the method: as §1

[17] = molecular target: Gal(b1-3)[Fuc(a1-4)]GlcNAc
Summary of the method: as §1

[18] = molecular target: Gal(b1-3)[Fuc(a1-4)]GlcNAc(b1-2)Man
Summary of the method: as §1

[19] = molecular target: Gal(b1-3)[Fuc(a1-4)]GlcNAc(b1-2)Man(a1-3)[Gal(b1-3)[Fuc(a1-4)]GlcNAc(b1-2)Man(a1-6)]Man(b1-4)GlcNAc(b1-4)[Fuc(a1-6)]GlcNAc
Summary of the method: as §1

[20] = molecular target: Gal(b1-3)[Fuc(a1-4)]GlcNAc(b1-3)Gal(b1-3)[Fuc(a1-4)]GlcNAc
Summary of the method: as §1

[21] = molecular target: Gal(b1-3)[Fuc(a1-4)]GlcNAc(b1-3)Gal(b1-4)[Fuc(a1-3)]GlcNAc
Summary of the method: as §1

[22] = molecular target: Gal(b1-3)[Fuc(a1-4)]GlcNAc(b1-6)GalNAc
Summary of the method: as §1

[23] = molecular target: Gal(b1-3)[GlcNAc(b1-6)]GalNAc
Summary of the method: as §1

[24] = molecular target: Gal(b1-3)[Neu5Ac(a2-6)]GalNAc
Summary of the method: as §1

[25] = molecular target: Gal(b1-3)[Neu5Ac(a2-6)]GlcNAc(b1-4)Gal(b1-4)Glc
Summary of the method: as §1

[26] = molecular target: Gal(b1-3)[Neu5Ac(b2-6)]GalNAc
Summary of the method: as §1

Gal(b1-4)Gal = molecular target: Gal(b1-4)Gal
Summary of the method: as §1

[27] = molecular target: Gal(b1-4)GalNAc(a1-3)[Fuc(a1-2)]Gal(b1-4)GlcNAc
Summary of the method: as §1

[28] = molecular target: Gal(b1-4)GalNAc(b1-3)[Fuc(a1-2)]Gal(b1-4)GlcNAc
Summary of the method: as §1

Gal(b1-4)Glc = molecular target: Gal(b1-4)Glc
Summary of the method: as §1

Gal(b1-4)Glc6S = molecular target: Gal(b1-4)Glc6S
Summary of the method: as §1

Gal(b1-4)GlcNAc = molecular target: Gal(b1-4)GlcNAc
Summary of the method: as §1

[29] = molecular target: Gal(b1-4)GlcNAc(a1-6)Gal(b1-4)GlcNAc
Summary of the method: as §1

Gal(b1-4)GlcNAc(b1-2)Man = molecular target: Gal(b1-4)GlcNAc(b1-2)Man
Summary of the method: as §1

[30] = molecular target: Gal(b1-4)GlcNAc(b1-2)Man(a1-3)Man(b1-4)GlcNAc(b1-4)GlcNAc
Summary of the method: as §1

[31] = molecular target: Gal(b1-4)GlcNAc(b1-2)Man(a1-3)[Gal(b1-4)GlcNAc(b1-2)Man(a1-6)]Man(b1-4)GlcNAc(b1-4)GlcNAc
Summary of the method: as §1

B1: PX9961C-bth-497-22-497 (Bacteroides thetaiotaomicron) (protein)
chain: DWLDLNTTSSVETGQAIVTLDDAQIALNGIYRLASGHSYYGDNYWYYGDCRAADVQARITKGDGKRVSPYYEYNVLASDNLNIVLPWNTVYKVIRQTNNLIQKIESGSIQSSDTKELNRIKSEALVMRGLSLFNLTRLFGMPYTNDKGASLGVPIETSPSDPTHKPSRSTVAQCYEQVVSDMSNALSGLRQETSNGYINYWAAQALLSRVYLNMGEYQKAYDAATDVIKNNGGRYQLYSYEEYPNVWGQDFQSESLFELYITLSEPSGGTGGEGAPMVYANEATVDWNNLILSEDFLNLLNEDPKDVRHCLTKESVIENNTGLPAAAMHEKVYLAKFPGKTGDDPKTNNICIIRLSEVYLNAAEAGLKKGTDIEEAQGYLNDIISRRTTDTSQQVSTETFTLDRILKERRKELVGEGEVFYDYLRNGLAIERKGSWHLETLKASNAQKIEATDLRIALPIPQSEIDANPNIQQNPR
- glycan array binding signal (z-score) [1]: -0.066
- glycan array binding signal (z-score) [2]: 0.492
- glycan array binding signal (z-score) [3]: 14.1
- glycan array binding signal (z-score) [4]: -0.306
- glycan array binding signal (z-score) [5]: -0.383
- glycan array binding signal (z-score) [6]: -0.282
- glycan array binding signal (z-score) [7]: -0.183
- glycan array binding signal (z-score) [8]: 0.491
- glycan array binding signal (z-score) [9]: 0.461
- glycan array binding signal (z-score) [10]: -0.329
- glycan array binding signal (z-score) [11]: 0.021
- glycan array binding signal (z-score) [12]: -0.391
- glycan array binding signal (z-score) [13]: -0.805
- glycan array binding signal (z-score) [14]: -0.218
- glycan array binding signal (z-score) [15]: -0.427
- glycan array binding signal (z-score) [16]: 0.026
- glycan array binding signal (z-score) (Gal(b1-3)GlcNAc6S): -0.422
- glycan array binding signal (z-score) [17]: -0.223
- glycan array binding signal (z-score) [18]: -0.293
- glycan array binding signal (z-score) [19]: 0.202
- glycan array binding signal (z-score) [20]: -0.45
- glycan array binding signal (z-score) [21]: 0.729
- glycan array binding signal (z-score) [22]: -0.101
- glycan array binding signal (z-score) [23]: -0.015
- glycan array binding signal (z-score) [24]: -0.416
- glycan array binding signal (z-score) [25]: -0.261
- glycan array binding signal (z-score) [26]: -0.256
- glycan array binding signal (z-score) (Gal(b1-4)Gal): -0.29
- glycan array binding signal (z-score) [27]: -0.203
- glycan array binding signal (z-score) [28]: -0.702
- glycan array binding signal (z-score) (Gal(b1-4)Glc): -0.471
- glycan array binding signal (z-score) (Gal(b1-4)Glc6S): -0.374
- glycan array binding signal (z-score) (Gal(b1-4)GlcNAc): -0.356
- glycan array binding signal (z-score) [29]: -0.367
- glycan array binding signal (z-score) (Gal(b1-4)GlcNAc(b1-2)Man): 0.061
- glycan array binding signal (z-score) [30]: 0.975
- glycan array binding signal (z-score) [31]: 0.431
